{"source": "ChEMBL document CHEMBL4888484", "about": "“Replenishing the malaria drug discovery pipeline: Screening and hit evaluation of the MMV Hit Generation Library 1 (HGL1) against asexual blood stage Plasmodium falciparum ,using a nano luciferase reporter read-out” (2022)", "note": "Among all 150,000 compounds or so, about 540 (0.36%) showed an effect of 50% or more. Some of the results follow."}
{"tested_on": "Plasmodium falciparum", "assay": "Primary screen in NF54 nanoGlo assay, in single point, at 2uM, 72h; a lower Z score goes with more inhibition", "type": "functional, Erythrocyte", "conditions": "timepoint 72 hour", "units": {"% Inhibition": "%"}}
{"smiles": "C[C@@H](NC(=O)C1CN2CCCN1CC2)c1ccccc1", "note": "(stereo partly drawn)", "% Inhibition": -5, "Z score": 0.8}
{"smiles": "O=C(Nc1cc(C(=O)N2CC3CCCC2C3)c2c(c1)ncn2C1CCCC1)c1ccccc1", "note": "(stereo not drawn)", "% Inhibition": -4, "Z score": 0.52}
{"smiles": "Cc1nc(CNC(=O)c2ccc(N3N=C(Cc4ccccc4)CC3=O)cc2)no1", "% Inhibition": 9, "Z score": -1.15}
{"smiles": "CC(Oc1cccc(OCC2CCC3CC3C2)c1)C(N)=O", "note": "(stereo not drawn)", "% Inhibition": 0, "Z score": -0.01}
{"smiles": "O=C(CCOc1ccc(F)c(Cl)c1)NCc1cccs1", "% Inhibition": -11, "Z score": 1.48}
{"smiles": "COCCO[C@H]1CN(C2CCN(S(C)(=O)=O)CC2)C12CCCCC2", "% Inhibition": -10, "Z score": 1.91}
{"smiles": "c1coc(-c2nc(COc3ccc4c(c3)OCO4)cs2)c1", "% Inhibition": 9, "Z score": -1.27}
{"smiles": "CC(=O)Nc1ccc(-c2nc(C)nn2-c2cccc3cccnc23)cn1", "% Inhibition": 1, "Z score": -0.13}
{"smiles": "COCCCNc1cncc2ncnn12", "% Inhibition": -2, "Z score": 0.29}
{"smiles": "O=C(OCc1nnnn1-c1ccccc1)C1(c2ccccc2)CCCC1", "% Inhibition": 1, "Z score": -0.13}
{"smiles": "CC(C)[C@@H](CO)NC(=O)c1cc(C(F)F)ncn1", "% Inhibition": 21, "Z score": -2.69}
{"smiles": "COc1cccc(CN2CCCN(c3ccc(C)cc3NS(=O)(=O)c3cccc(Cl)c3)C2=O)c1", "% Inhibition": -6, "Z score": 0.93}
{"smiles": "CCOc1ncccc1-c1ccc(N(C)CCO)nn1", "% Inhibition": -10, "Z score": 0.94}
{"smiles": "O=C1CN(c2ncnc3c2CCC3)CCN1Cc1ccccc1F", "% Inhibition": 7, "Z score": -1.17}
{"smiles": "O=C(Nc1ccc2ccoc2c1)N1CC[C@H](C2CCOCC2)C1", "% Inhibition": -16, "Z score": 2.24}
{"smiles": "COc1cccc2c(N3CCC[C@@H](C(=O)NC(C)C)C3)nccc12", "% Inhibition": 2, "Z score": -0.48}
{"smiles": "N#Cc1ccccc1S(=O)(=O)Cl", "% Inhibition": -12, "Z score": 1.61}
{"smiles": "O=C1COc2ccc(S(=O)(=O)N3CCC[C@H]3c3ccccc3)cc2N1", "% Inhibition": 20, "Z score": -2.48}
{"smiles": "COc1ccc(-c2nc3noc(C)c3c(N)c2C#N)cc1", "% Inhibition": -36, "Z score": 4.25}
{"smiles": "COc1cc2c(cc1OC)[C@H](CNC(=O)c1ccccc1)N(Cc1cccc(F)c1)CC2", "% Inhibition": -12, "Z score": 1.8}
{"smiles": "CCN(CC)CC(O)COc1c(Br)cc(C(C)(C)c2cc(Br)c(OCC(O)CN(CC)CC)c(Br)c2)cc1Br", "note": "(stereo not drawn)", "% Inhibition": 99, "Z score": -13.36}
{"smiles": "CC1(C)CCC2c3ccccc3NC3C(C)(C)C=C1C23C", "note": "(stereo not drawn)", "% Inhibition": -3, "Z score": 0.68}
{"smiles": "COCCNC(=O)CN[C@@H](C)c1nc(C)cs1", "% Inhibition": -18, "Z score": 1.89}
{"smiles": "OC1c2ccccc2CC1NCc1ccc(-c2ccn[nH]2)o1", "note": "(stereo not drawn)", "% Inhibition": -19, "Z score": 1.91}
